# Measurements reported in publication PMC4336329 (PLoS ONE, 2015).
# Out of some 310,000 compounds screened, about 14,000 (4.5%) showed an effect of 50% or more. The effect is printed as a negative number. Some of the results follow.
# Biological target: human ether-à-go-go-related gene (hERG) potassium channel (human, UniProt Q12809)
# Test: primary screen, population patch clamp on CHO cells stably expressing hERG
# 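Further: peak tail current of the secondary pulse compared with the same well before compound.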
# human ether-à-go-go-related gene (hERG) potassium channel, sequence (Q12809 whole entry, looked up): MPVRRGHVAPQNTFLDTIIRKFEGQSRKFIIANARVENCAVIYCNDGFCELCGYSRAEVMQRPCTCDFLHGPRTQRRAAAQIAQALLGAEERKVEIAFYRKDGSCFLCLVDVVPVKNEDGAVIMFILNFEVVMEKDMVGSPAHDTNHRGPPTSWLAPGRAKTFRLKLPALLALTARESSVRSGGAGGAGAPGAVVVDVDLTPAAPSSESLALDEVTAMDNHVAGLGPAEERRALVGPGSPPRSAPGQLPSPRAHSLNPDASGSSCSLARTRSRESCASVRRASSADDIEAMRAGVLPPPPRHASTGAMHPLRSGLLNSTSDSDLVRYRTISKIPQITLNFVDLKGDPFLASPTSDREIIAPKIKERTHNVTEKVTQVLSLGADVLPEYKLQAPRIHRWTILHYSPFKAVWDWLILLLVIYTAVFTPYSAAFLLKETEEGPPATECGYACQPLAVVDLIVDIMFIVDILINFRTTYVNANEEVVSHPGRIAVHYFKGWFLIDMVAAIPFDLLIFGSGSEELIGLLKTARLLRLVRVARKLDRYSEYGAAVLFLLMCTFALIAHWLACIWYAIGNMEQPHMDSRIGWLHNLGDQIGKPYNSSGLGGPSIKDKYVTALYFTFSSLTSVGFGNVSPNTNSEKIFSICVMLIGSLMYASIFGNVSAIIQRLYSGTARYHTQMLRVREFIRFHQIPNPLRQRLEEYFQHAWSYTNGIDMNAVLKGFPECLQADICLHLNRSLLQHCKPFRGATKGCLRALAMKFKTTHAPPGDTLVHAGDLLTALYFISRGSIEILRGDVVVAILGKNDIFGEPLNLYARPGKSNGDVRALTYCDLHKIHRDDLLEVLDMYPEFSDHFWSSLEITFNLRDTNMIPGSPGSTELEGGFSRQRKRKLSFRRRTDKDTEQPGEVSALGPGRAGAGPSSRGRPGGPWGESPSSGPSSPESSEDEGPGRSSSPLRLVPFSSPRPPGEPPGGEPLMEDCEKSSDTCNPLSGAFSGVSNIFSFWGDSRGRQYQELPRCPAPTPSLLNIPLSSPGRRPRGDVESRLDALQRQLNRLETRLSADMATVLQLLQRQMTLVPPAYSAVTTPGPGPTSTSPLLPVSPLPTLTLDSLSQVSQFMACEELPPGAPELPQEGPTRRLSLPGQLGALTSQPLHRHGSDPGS
row,Compound,"hERG current change (%, negative = inhibition) at 10uM [%]"
1,C[n+]1cn(Cc2ccc(C#N)cc2)c2ccccc21.[Cl-],2.75
2,CCS(=O)(=O)c1nc(S(=O)(=O)c2ccc(Cl)cc2)c(N2CCCC2)s1,10.5
3,Cc1cccc(NC(=O)N2CCCC(CNC(=O)c3ccccc3Cl)C2)c1C (stereo not shown),27.6
4,COCCCNC(=S)N/N=C/c1ccc(O)cc1O,8.36
5,Cc1ccc(CSc2nccc(-c3c(C)nc4ccccn34)n2)cc1,16.9
6,Cc1cccc(-n2c(SCC(N)=O)nc3c(c2=O)C2(CCCC2)Cc2ccccc2-3)c1,-13.1
7,CC1(C)CC(=O)NC=C(c2ccccc2)C1,5.84
8,CCOc1ccc(Nc2ccc(S(=O)(=O)N3CCN(C)CC3)cc2[N+](=O)[O-])cc1OCC,-10.7
9,O=C(NCc1ccccc1)C1CCN(C(=O)NCc2ccccc2)CC1,8.86
10,CCOC(=O)c1ccc2c(c1)[nH]c(=S)n2CC,4.88
11,Cn1c(=NC(=O)C2CC2)sc2cccc(F)c21,-15.7
12,O=C(CCCOc1ccccc1)Nc1nncs1,-5.59
13,Cc1cc(/C=C2\SC(=O)N(CC(=O)Nc3ccccc3F)C2=O)c(C)n1C,10.2
14,CCOC(=O)c1sc(NC(=O)CN2C(=O)c3cccc4cccc(c34)C2=O)nc1C,15.3
15,CCn1ncc(Br)c1C(=O)Nc1cc([N+](=O)[O-])ccc1C,-13.1
16,O=C1c2ccccc2N2C(=O)c3ccccc3C2N1Cc1ccco1 (stereo not shown),-27.4
17,O=C(NCc1ccc(Cl)cc1)c1cc(=O)nc2sc(-c3ccccc3)nn12,-2.29
18,O=C(COC(=O)c1nc(Cl)ccc1Cl)c1ccc(Cl)s1,8.38
19,O=[N+]([O-])c1ccc(-c2csc(N3CCc4ccccc4C3)n2)cc1,-4.54
20,CCc1ccc(S(=O)(=O)/N=C2\C=C(Nc3ccc(C(=O)O)cc3)C(=O)c3ccccc32)cc1,21.5
21,O=S(=O)(c1ccc(Cl)s1)N1CCN(CCc2ccccc2)CC1,-2.11
22,CC(C)NC(=O)CN(Cc1ccc(F)cc1)C(=O)CCC(=O)Nc1ccccn1,11.6
23,O=C1NN(c2ccccc2)C(=O)/C1=C/c1ccc(Sc2cccc3ccccc23)o1,8.89
24,CCN(C(=O)CN1C(=O)COc2ccc(S(=O)(=O)N3CCOCC3)cc21)c1ccc(OC)cc1,-20.9
25,CCOC(=O)Cc1csc(NC(=O)c2cc3ccccc3o2)n1,-16.5
26,NC(=O)CSc1nnc(-c2ccc(S(=O)(=O)N3CCCC3)cc2)n1CC1CCCO1 (stereo not shown),-1.83
27,Nc1ncnc2c1ncn2[C@@H]1O[C@H](CO)C[C@H]1O,15.8
28,O=C(COC(=O)/C=C/c1ccccc1)NCCNC(=O)COC(=O)/C=C/c1ccccc1,5.3

row,Compound,"hERG current change (%, negative = inhibition) at 10uM [%]"
1,COCC1CCCCN1C(=O)c1ccc2oc(CCCc3ccccc3)nc2c1 (stereo not shown),-14.3
2,COCc1nnc(NC(=O)C2CC(=O)N(C3CCCCC3)C2)s1 (stereo not shown),0.298
3,Cc1ccc(NS(=O)(=O)c2ccc(CCC(=O)O)cc2)cc1,5.4
4,C/C(=N\NC(=O)c1csc2ccccc12)c1ccc(O)cc1,2.77
5,S=C(Nc1ccc(Cl)cc1)Nc1ccc2c(c1)OCCO2,16
6,COc1cc([N+](=O)[O-])ccc1NC(=O)c1cccc(NC(=O)C(C)C)c1,17.1
7,Clc1ccccc1C1SCC2Nc3ccccc3CN21 (stereo not shown),7.1
8,Cc1ccc(CNC(=O)Cn2cc(C(F)(F)F)ccc2=O)cc1,-5.92
9,Cc1cc([N+](=O)[O-])nn1CC(=O)Nc1sc2c(c1C(N)=O)CCCC2,7.62
10,COc1ccc(F)cc1COc1nc(C)nc2ccccc12,-10.4
11,O=C(Cn1cncc1-c1ccc([N+](=O)[O-])cc1)Nc1ccccc1F,-12.6
12,O=C(Cc1cccc2ccccc12)Nc1ccc(N2CCOCC2)cc1,15.3
13,Cl.OC(CCN1CCCCC1)(c1ccccc1)C1CCCCC1 (stereo not shown),-21.4
14,CCOC(=O)c1sc2c(c1C)c(=O)n(Cc1ccccc1)c(=O)n2CCN(C)C,-58.9
15,CCOC(=O)c1c(N)sc(C(=O)OC)c1C,10.7
16,COc1ccccc1/C=N/NC1=NCCCCC1.Cl,-13
17,C/C(=N/NC(=O)c1ccc(C(C)(C)C)cc1)c1ccccn1,-10.1
18,Oc1cc(-n2cccn2)c(O)cc1-n1cccn1,21
19,CCCCCCCC(=O)OCC(=O)[C@@]1(O)CC[C@H]2[C@@H]3CCC4=CC(=O)CC[C@]4(C)[C@H]3[C@@H](O)C[C@@]21C,18.6
20,CCOc1ccc(OCCC(=O)OCC(=O)Nc2ccc(C)c(S(=O)(=O)N3CCCCC3)c2)cc1,5.34
21,COc1ccc(-c2csc(Nc3ccc(S(=O)(=O)Nc4cc(C)on4)cc3)n2)cc1C,9.49
22,CC(OC(=O)c1ccc(Cl)nc1)C(=O)N1CCc2ccccc21 (stereo not shown),-3.81
23,CCOc1cc(C2C(C(=O)OC(C)C)=C(C)NC3=C2C(=O)CCC3)cc([N+](=O)[O-])c1O (stereo not shown),-6.02
24,Cc1ccc2nc(N(CCN(C)C)C(=O)c3ccc4ccccc4c3)sc2c1.Cl,15.9
25,CCOC(=O)CC(NS(=O)(=O)Cc1ccccc1)c1ccc(C)cc1 (stereo not shown),-5.46
26,CS(=O)(=O)Nc1ccc(C2=NN(C(=O)C3CCCCC3)C(c3cccs3)C2)cc1 (stereo not shown),-22.8
27,O=S(=O)(Nc1ccc2nc(-c3ccco3)[nH]c2c1)c1ccccc1,-58.4
